In the supplement of paper PMC10126150:
Sequences with one replicate were seen in a single cluster, so their values are uncertain.

Tested on: ATP
Assay: switch fluorescence ratio, 500 uM ATP over buffer (Cy3 cluster intensity, sum of 5 cycles each) (fold (ratio)); higher = stronger signal-on switching upon ATP binding; sequences stand for … in TCGTCGGCAGCGTCAGATGTGTATAAGAGACAGTTTTTTTTTTTTTTTTTTTTTTTTT…TC
Conditions: aptamer strand: ATP DNA aptamer (quencher-CACCTGGGGGAGTATTGCGGAGGAAGG + anchor), 100 nM annealed; ATP concentration: 500 uM; one replicate
Method in brief: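 Switching-strand clusters labelled with Cy3 on a modified Illumina MiSeq flow-cell were annealed to 100 nM quencher-labelled ATP aptamer, imaged in selection buffer, and re-imaged after 15 min with 500 uM ATP at 22 °C. This was done over five cycles with NaOH stripping and re-annealing in between. The fluorescence ratio is summed target-cycle over summed buffer-cycle Cy3 intensity per cluster, averaged per switch-domain sequence, excluding clusters outside 100-1000 RFU.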
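Also: ATP exposure 15 min at 22 °C before imaging.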

Row | Sequence | switch fluorescence ratio
1 | AATATTCCA | 0.952
2 | GCCTAGTAAG | 0.921
3 | CGTCGGGTCT | 1.04
4 | GCGAACGTTA | 1.24
5 | TTTCTATAAG | 0.975
6 | TCGGAATGAT | 1.04
7 | AATATAAGTC | 1.09
8 | AATAGTTTC | 1.03
9 | CTCGCAGCGT | 1.16
10 | AAACTTGTAT | 0.98
11 | AAATAGTTTA | 1.01
12 | GCAACGTATA | 1.08
13 | AGTACTACCT | 1.25
14 | GGATCGGCGC | 0.942
15 | CGAGACCTCC | 1.31
16 | CAGAATGGGC | 0.985
17 | ACATTATGCG | 1.02
18 | GCATAGCTTA | 1
19 | GTGCTTGTTT | 0.98
20 | CGGATTCTTC | 0.988
21 | TCACCCGATT | 1.02
22 | TCGTCTACAC | 1.16
23 | GAAGATGTCA | 0.926
24 | TCACCATCTA | 1.02
25 | CTCGTGAGGT | 1
26 | CTATTAAGGA | 0.95

Row | Sequence | switch fluorescence ratio
27 | ATTGCCGTCC | 1.02
28 | TGTGCTGGGG | 1.02
29 | ACTGGATTCG | 0.99
30 | CATGAAAGGT | 1.03
31 | TGTGGTGGCT | 0.968
32 | ATTCGAGGGA | 0.984
33 | GATTGTGGTT | 0.991
34 | GTAAGGTAAT | 0.996
35 | CGGAAATGC | 2.3
36 | GTAATTCTCG | 1.07
37 | CTAGGGGCTA | 1.03
38 | ATAGGGATC | 1.02
39 | TTAGCTAGAA | 0.988
40 | CTGACTTTCT | 1.04
41 | CCTTAATTG | 1.01
42 | AATGACGGTT | 0.963
43 | GGCTAATGTT | 1.01
44 | CATGAAACTC | 0.993
45 | CTTTTTATTA | 1
46 | AAGATGTTCG | 1.02
47 | TTGCTGACGA | 1.06
48 | TCAGCTCGGC | 0.994
49 | TTTATACAAA | 0.997
50 | TGATATAGAC | 1.04
51 | CAAGTGATGT | 0.976
52 | ACACTTCCTA | 1.21

Row | Sequence | switch fluorescence ratio
53 | CACACCCACT | 1.2
54 | ATAGTCACTT | 1.02
55 | TCAAAAGCTT | 1.04
56 | TAAGGGTAAA | 0.983
57 | CGGGATTAGG | 0.99
58 | TGGAACCGAC | 2.3
59 | CCTATCGGG | 1
60 | GGTGACCTCG | 0.938
61 | TAGAGGTAC | 1.01
62 | GCAGCACGAA | 1.26
63 | GTAGCTCAGG | 1.1
64 | GCCCCAAATG | 1.03
65 | GCGCCATGGA | 1.05
66 | TTACGGCACT | 1.69
67 | TATAAGGTAG | 0.986
68 | ATTAACATGG | 1.02
69 | ACTGTCCGAT | 1.03
70 | CACGTCGGTT | 0.973
71 | CTAGGTGCTT | 1.36
72 | TTGGTCACCT | 1.05
73 | GCTTCGTATG | 0.994
74 | GGGTAATGGT | 0.98
75 | AGCAATAAGA | 1.9
76 | GCGGGGTCAC | 1.01
77 | TAGCATAATG | 1.01
78 | CAAAAGATGG | 0.987

Row | Sequence | switch fluorescence ratio
79 | GGTTTTAGCG | 0.943
80 | AGACAGTTAC | 1.16
81 | CTCTCTTCAT | 1.03
82 | ATGTCGGTCC | 0.995
83 | AAAGGTACTC | 0.983
84 | AAACAGGACC | 0.996
85 | AGGAGCGACC | 1.03
86 | TTATCGTAGT | 0.995
87 | GGGGGCCAAA | 1
88 | TGAGCAAAAT | 1.02
89 | CCATTAAAGG | 1.02
90 | AGACTATTAT | 1.06
91 | GTGAAAATAT | 0.969
92 | AGAATCTAGT | 0.976
93 | ACGTAGTTTT | 1.01
94 | GTATGGGAAC | 1
95 | ACTTTACTAT | 1.2
96 | TGATGATTCG | 1.01
97 | ATGAAGAG | 1.01
98 | GATGTTGTAG | 1
99 | CATAGCGAAA | 1.06
100 | AGGGAGTAAG | 1.03
101 | ACAATTGCTT | 0.984
102 | GAAAGTAGA | 0.975
103 | ATGATAAAAG | 1.04
104 | TGATGGTGAA | 0.992

Row | Sequence | switch fluorescence ratio
105 | AGGTGTGTTC | 1.01
106 | AACCCGTATT | 0.97
107 | AATAGGTCGC | 1.01
108 | AACAAACGTG | 1.13
109 | CTATTGGATT | 1.01
110 | GAAGAATGGC | 0.984
111 | ATGACTAGAC | 1.1
112 | TGCAGGATTA | 1.03
113 | TCTCAGCAAG | 1.61
114 | GTGGGTCTTC | 1.01
115 | GTGGTAAAAC | 0.975
116 | CTGGTGTTCC | 1.07
117 | CTAATGTGTT | 0.948
118 | TTAAACATGT | 1.02
119 | CGTGGACCGT | 1
120 | AGGTCAGCTA | 0.98
121 | AGTCAAGATA | 0.981
122 | TGACCTACGC | 1.59
123 | GGGTCTGATT | 1.02
124 | TTGAAATTGA | 0.943
125 | GTTGTTCGCT | 0.977
126 | CTTCTCTTAG | 0.985
127 | GCGTCTTTGT | 0.951
128 | AGTCGGGGTG | 2.75
129 | GTACCTTTTC | 1.18
130 | AATATCCAGG | 1.28

Row | Sequence | switch fluorescence ratio
131 | GCGAGAGGTG | 1.12
132 | ATGTGTTGCC | 0.978
133 | GCGGGTCATC | 1.08
134 | CTGAACGTCG | 1.09
135 | CCTGTGTCAT | 1.1
136 | AATACCCCTA | 1.15
137 | TTTGGCCAGT | 0.996
138 | ACGAACAATT | 1.24
139 | CGGACGCTTG | 1.03
140 | CCAAGCATGT | 2.07
141 | TAGAGCGAAC | 1.05
142 | TAGGGTAAAA | 0.972
143 | TGCTTATTGT | 0.977
144 | CTAACACTCT | 0.99
145 | TTAAATCAT | 0.988
146 | ATTGAGTTA | 1.03
147 | TTTTAACAAC | 1.05
148 | GTGTCACGCG | 1.07
149 | TTTTGCGTTA | 1.06
150 | ATAGGTGGG | 0.987
151 | AAAGAACAGC | 1
152 | ACCGGGCCTC | 1.02
153 | TGGAGAGGAG | 0.966
